One substance from article PMC8428793 can be followed below.

By UniProt entry, the sequences of proteins in these tests, tags left out.
UniProt Q9UK41: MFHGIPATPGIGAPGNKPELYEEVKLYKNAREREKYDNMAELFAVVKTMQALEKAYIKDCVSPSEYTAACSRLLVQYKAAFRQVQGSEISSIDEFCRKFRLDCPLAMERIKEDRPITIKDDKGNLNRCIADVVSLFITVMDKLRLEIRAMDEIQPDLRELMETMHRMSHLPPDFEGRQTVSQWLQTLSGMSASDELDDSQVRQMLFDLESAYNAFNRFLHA

The test concerns the target T1, AKTIP fused to the Gal4 DNA-binding domain (human) (UniProt Q9H8T0).
T1 sequence: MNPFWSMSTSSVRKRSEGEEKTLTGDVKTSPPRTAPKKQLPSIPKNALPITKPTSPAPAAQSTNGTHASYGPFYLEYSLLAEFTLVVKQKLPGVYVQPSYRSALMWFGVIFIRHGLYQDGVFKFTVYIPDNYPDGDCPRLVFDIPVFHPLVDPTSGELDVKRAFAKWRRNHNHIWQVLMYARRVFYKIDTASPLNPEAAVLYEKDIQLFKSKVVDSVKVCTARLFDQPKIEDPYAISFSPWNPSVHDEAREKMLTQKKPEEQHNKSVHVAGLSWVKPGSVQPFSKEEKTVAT
Kind of test: two-hybrid; yeast Y190 co-transformed with AKTIP-Gal4 DNA-binding domain (pGBKT7) and VP16 activation domain fusions (pHB18); liquid beta-galactosidase (LacZ) assay.

These are yes or no findings as the source states them, for the method shown. Some results given as binding are weak or reduced against the parent protein; the word gives no strength. Sequences can lack the tags named with a protein.

As to “VPS28 fused to the VP16 activation domain (from UniProt Q9UK41 1-221)”, the binding result is reported as “binds”.
